For this series, the system named is ATP. Put plainly: switch fluorescence ratio, 500 uM ATP over buffer (Cy3 cluster intensity, sum of 5 cycles each) (fold (ratio)); higher = stronger signal-on switching upon ATP binding; sequences stand for … in TCGTCGGCAGCGTCAGATGTGTATAAGAGACAGTTTTTTTTTTTTTTTTTTTTTTTTT…TC. Particulars: aptamer strand: ATP DNA aptamer (quencher-CACCTGGGGGAGTATTGCGGAGGAAGG + anchor), 100 nM annealed; ATP concentration: 500 uM; one replicate. An outline of the steps: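 Per cluster, summed Cy3 intensity from the target cycles was divided by that from the buffer cycles to give the fluorescence ratio, then averaged per switch-domain sequence. Clusters outside 100-1000 RFU were excluded. The Cy3-labelled switching-strand clusters, on a modified Illumina MiSeq flow-cell, were annealed to 100 nM quencher-labelled ATP aptamer and imaged in selection buffer, then after 15 min with 500 uM ATP at 22 °C, for five cycles with NaOH stripping and re-annealing between them.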

Sequences with one replicate were seen in a single cluster, so their values are uncertain.
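Also: ATP exposure 15 min at 22 °C before imaging.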

For the sequence GCTTGAGAAT, the switch fluorescence ratio is 1.01.

Take GTTAACGGTC: the switch fluorescence ratio amounted to 1.02.

Consider ATCAGTGCCC, for which the switch fluorescence ratio came out at 1.

As for CCCCCATAAT, the switch fluorescence ratio was found to be 1.18.

With CAGATAGGTA, the switch fluorescence ratio came out at 1.01.

Regarding GGGCCACTGC, the switch fluorescence ratio came to 0.924.

Regarding GGGCTCTGCA, the switch fluorescence ratio turned out to be 1.06.

Consider CATCGCTAGT, for which the switch fluorescence ratio was found to be 1.05.

GACAACGGG: the switch fluorescence ratio was 1.02.

For the sequence TCAGCCTTTT, the switch fluorescence ratio came out at 0.974.

Consider CGGATCGGA, for which the switch fluorescence ratio was determined as 0.965.

As to GGTACGGACA, the switch fluorescence ratio came to 1.35.

As for AAAGTTAGCT, the switch fluorescence ratio is 0.984.

On to CGCTTGCAAG, for which the switch fluorescence ratio worked out at 0.976.

GAGGCGGGTA: the switch fluorescence ratio is 0.959.

Turning to AGCTATTCTG, the switch fluorescence ratio came to 0.99.

With CATAAACAAA, the switch fluorescence ratio was determined as 0.972.

As to GTCTGCATTT, the switch fluorescence ratio came out at 0.964.

Consider TGTAATGTAT, for which the switch fluorescence ratio was 1.02.

As for CTACGGTCGA, the switch fluorescence ratio stood at 1.02.

On to GGGTCGTTCG, for which the switch fluorescence ratio worked out at 0.999.

Regarding ACGCCGACTG, the switch fluorescence ratio turned out to be 1.21.

For the sequence TACCGAAACA, the switch fluorescence ratio was determined as 0.976.

TCCATCGGCG: the switch fluorescence ratio came to 1.02.

As to TCGGTGGTGT, the switch fluorescence ratio worked out at 0.945.

On to ATTACTAATG, for which the switch fluorescence ratio was 1.03.

Regarding GATGCGACTC, the switch fluorescence ratio was found to be 1.22.

Take AATTTATAGG: the switch fluorescence ratio was determined as 1.

Take ATATACATTT: the switch fluorescence ratio stood at 1.03.

As to TACTTACGTA, the switch fluorescence ratio was 1.44.

Regarding TCATGAGCT, the switch fluorescence ratio was determined as 1.03.

TAAGCGCTAA: the switch fluorescence ratio is 1.01.

Regarding AGGGGCTCTA, the switch fluorescence ratio was 1.02.

Regarding CCATTTTGCT, the switch fluorescence ratio stood at 0.988.

As to ATGAAAACAT, the switch fluorescence ratio came to 1.01.

On to TTCATCCTTC, for which the switch fluorescence ratio was 1.1.

As for TCGCATCGCT, the switch fluorescence ratio was found to be 1.02.

Regarding AGAACAGCAG, the switch fluorescence ratio is 1.02.

Take GATTGATCGG: the switch fluorescence ratio amounted to 0.998.

For ATTGGGCGC, the switch fluorescence ratio was 0.997.

On to CAAACGTGCG, for which the switch fluorescence ratio is 1.04.

For CTCTTCGATG, the switch fluorescence ratio worked out at 1.01.

ACAAGCTTGG: the switch fluorescence ratio worked out at 1.

Take GACGCAGGAT: the switch fluorescence ratio came to 1.83.

Regarding AGGTGTCTAA, the switch fluorescence ratio is 0.952.

Consider AAGCACGGAT, for which the switch fluorescence ratio came out at 1.1.

Regarding TTAATAACCG, the switch fluorescence ratio amounted to 1.04.

In the case of AAGACAAGTG, the switch fluorescence ratio is 0.971.

Regarding CAGGGGTGCA, the switch fluorescence ratio came out at 0.991.

For CTGAGGCGCG, the switch fluorescence ratio was 0.979.

In the case of TTTCTAATA, the switch fluorescence ratio worked out at 1.03.

For the sequence GACTTACAAT, the switch fluorescence ratio was found to be 1.17.

TAACCCAGGA: the switch fluorescence ratio amounted to 1.29.

Take CTTAAAATAA: the switch fluorescence ratio is 1.01.

GAAGTTTAG: the switch fluorescence ratio was 1.05.

With GAGCCAAGTA, the switch fluorescence ratio stood at 1.01.

As for AGTAATGGAA, the switch fluorescence ratio turned out to be 1.01.

With ATAAGTATAT, the switch fluorescence ratio was determined as 1.04.

As to GCGACTTGTA, the switch fluorescence ratio came to 0.985.

As to ATGTAATCC, the switch fluorescence ratio was determined as 1.02.

Consider ATCCATGACT, for which the switch fluorescence ratio was 1.03.

For the sequence GTTCATTATT, the switch fluorescence ratio is 1.01.

Regarding CCCTATTTCA, the switch fluorescence ratio came to 0.989.

On to AGGAGCGATT, for which the switch fluorescence ratio is 1.07.

For GCCCGCGCGG, the switch fluorescence ratio was found to be 1.01.

On to GCCACAGCGC, for which the switch fluorescence ratio amounted to 0.993.

For the sequence AGTTGACTCG, the switch fluorescence ratio came to 0.981.

Values taken from the supplement of paper PMC10126150.
